Data taken from paper PMC10668032.
The other results are listed elsewhere or left out. At the low end of the ranking the order means little.

Each sequence was assayed against SIX1-Q177R homeodomain (UniProt Q15475) (assay: universal protein binding microarray). Settings: Universal all-10-mer PBM (8x60K, AMADID 030236), 300 nM GST-tagged protein, Alexa Fluor 488 anti-GST; buffer, salt, pH and temperature not stated; high values mean tight binding; most listed sequences are background and not binding sites; double strand, one strand shown.

| Sequence | binding signal |
| --- | --- |
| ATGTATGA | 0.0351 E-score |
| GGTGCGGA | 0.0489 E-score |
| CTAGCACA | -0.0486 E-score |
| CCTACTTC | -0.106 E-score |
| TGTCTGAA | 0.0965 E-score |
| TAGCCGCA | -0.0681 E-score |
| CACTCCAA | 0.161 E-score |
| CTGGTGTC | 0.483 E-score |
| GGCAAAAA | -0.224 E-score |
| ACTAGGGG | 0.123 E-score |
| TCACTAGA | 0.0337 E-score |
| CGGCCGAA | -0.181 E-score |
| CAATCTGG | 0.111 E-score |
| AGTGACTC | 0.193 E-score |
| GTTAGCTA | -0.174 E-score |
| AAGTAAAG | -0.353 E-score |
| ACAACCCG | 0.0997 E-score |
| ACACACCG | 0.428 E-score |
| ATGTTTCC | -0.145 E-score |
| CGTGGCTC | -0.112 E-score |
| ATGTTCTG | -0.0718 E-score |
| ACGGCAAT | -0.178 E-score |
| ACATGTAC | 0.0322 E-score |
| CTACGACC | 0.0495 E-score |
| GCCATTTA | -0.0791 E-score |

| Sequence | binding signal |
| --- | --- |
| ATCTAAAT | -0.12 E-score |
| GAAAGAAC | -0.104 E-score |
| CACCCGAC | 0.358 E-score |
| AACGTCGT | -0.225 E-score |
| AGCCAACC | 0.0218 E-score |
| AGCAGCCG | -0.15 E-score |
| GACGCTAC | 0.0349 E-score |
| AATTGAAA | -0.227 E-score |
| ATGCGTAG | -0.0817 E-score |
| GAAACTAA | -0.27 E-score |
| CATGTTCA | -0.189 E-score |
| AATTAGAC | -0.0992 E-score |
| ACCTCTCT | 0.0132 E-score |
| AACTACGT | -0.0914 E-score |
| CGGACGGC | -0.214 E-score |
| ATTCAAGG | 0.00488 E-score |
| CCTTCCCG | -0.0521 E-score |
| GCCGCACA | -0.126 E-score |
| GTTTATCA | -0.0583 E-score |
| CAGAGATG | -0.0916 E-score |
| AGTTATGA | -0.0578 E-score |
| AGTCATTC | -0.0942 E-score |
| ACTTCGCA | -0.162 E-score |
| GTACCTAA | 0.114 E-score |
| AATTTTGT | -0.139 E-score |

| Sequence | binding signal |
| --- | --- |
| CCCTTGGA | 0.0288 E-score |
| ACTATGGC | -0.0518 E-score |
| CACCTGCC | 0.225 E-score |
| CAACTCTC | -0.00359 E-score |
| CCAAATGA | 0.0231 E-score |
| AAGGCCGA | -0.107 E-score |
| ATTTTCAC | 0.0229 E-score |
| CTAACTTC | -0.247 E-score |
| CCCACTAG | -0.0273 E-score |
| AAGTCAAT | -0.16 E-score |
| GCTGCGAC | -0.169 E-score |
| TGGAGTAA | 0.233 E-score |
| ATTGCCCG | -0.136 E-score |
| CGCCCGTA | -0.0801 E-score |
| GCCACAGA | -0.0115 E-score |
| GAATTGAA | -0.106 E-score |
| ACGACGCA | 0.0134 E-score |
| GAACAGGA | -0.0192 E-score |
| ACGCAATG | -0.00421 E-score |
| AACTGCAT | -0.192 E-score |
| ACGCTTAT | 0.0704 E-score |
| ACCATTAT | -0.00154 E-score |
| CCCATGCA | 0.0909 E-score |
| GAAAGTGC | -0.223 E-score |
| GTACTTTA | 0.0809 E-score |

| Sequence | binding signal |
| --- | --- |
| CCTGGATC | 0.0322 E-score |
| AGAGCTCA | -0.24 E-score |
| CGAAGGGC | -0.159 E-score |
| CGACTACG | 0.0262 E-score |
| ATACGCTC | -0.13 E-score |
| CCAAGCCG | 0.0413 E-score |
| GGCGCCTA | -0.219 E-score |
| GCCCGGGA | 0.00266 E-score |
| AGGCGTAG | -0.0918 E-score |
| CCGTTTCG | -0.169 E-score |
| GGGTTAGA | 0.149 E-score |
| CCGATCAC | 0.0886 E-score |
| CTTCAGTA | -0.153 E-score |
| CCCCTTAA | 0.114 E-score |
| TATAGCCA | -0.0323 E-score |
| CTGGACAC | 0.406 E-score |
| ATGAATCG | -0.229 E-score |
| CTCACATA | 0.0518 E-score |
| CTGACCGA | -0.116 E-score |
| ATTCGCTC | -0.11 E-score |
| GTTGCCCA | -0.0908 E-score |
| AGGGACGG | -0.117 E-score |
| GCTGTACA | 0.208 E-score |
| ACGGTCGG | 0.0757 E-score |
| CTCCCGCC | -0.0386 E-score |

| Sequence | binding signal |
| --- | --- |
| GAATATCC | -0.197 E-score |
| AAGTCATT | -0.347 E-score |
| TGTCAACA | 0.281 E-score |
| GAAGCTAC | -0.177 E-score |
| AAACTATC | -0.226 E-score |
| TCCACGCA | -0.0137 E-score |
| CTTGTTAA | -0.0879 E-score |
| GAATATGC | -0.133 E-score |
| CCCAGTCC | -0.0684 E-score |
| GTGAAATA | 0.172 E-score |
| ATCAAGCC | -0.203 E-score |
| AGATACCA | 0.192 E-score |
| GAAGGCGA | -0.112 E-score |
| ATTATAAC | -0.0486 E-score |
| ACGCGCAC | 0.0474 E-score |
| CCGAGAAC | -0.1 E-score |
| AGTCTTTA | -0.281 E-score |
| CAACTTAC | 0.117 E-score |
| GTGCAATA | 0.128 E-score |
| ATAAAGTA | -0.172 E-score |
| CCCTGATA | -0.0605 E-score |
| ACGGATTG | -0.0324 E-score |
| CCGTGTTC | 0.384 E-score |
| GAAGACCC | -0.0702 E-score |
| AGCACTAA | -0.147 E-score |

| Sequence | binding signal |
| --- | --- |
| GACAAAAC | -0.109 E-score |
| AGTTAAAC | 0.0943 E-score |
| CTCAGAAA | -0.096 E-score |
| AGCGCAGC | -0.163 E-score |
| AGACGGGC | 0.0434 E-score |
| CACTTAGG | 0.229 E-score |
| AGAATAGC | -0.122 E-score |
| CACGCCTA | 0.214 E-score |
| ACGTGCCC | -0.0511 E-score |
| GCCCCAGA | -0.0984 E-score |
| CTCCTGCC | 0.0305 E-score |
| AAAATGGA | -0.0767 E-score |
| AGCGTCTA | 0.0612 E-score |
| ACGTACCC | 0.202 E-score |
| CAACTGAC | -0.0476 E-score |
| CCCTAGGG | 0.0954 E-score |
| CGCGAAGA | -0.124 E-score |
| GACCTGGA | 0.0327 E-score |
| CGGCGGGC | -0.0477 E-score |
| AACCTAAG | -0.19 E-score |
| CACTCTCC | 0.192 E-score |
| TGTGCTAA | -0.0775 E-score |
| CCAGTTTA | 0.227 E-score |
| ACCGGGCT | 0.0701 E-score |
| CGTTTGGA | -0.146 E-score |

| Sequence | binding signal |
| --- | --- |
| AATTAGGC | -0.0885 E-score |
| ACTTGATA | 0.13 E-score |
| AAAGCGGG | -0.031 E-score |
| GTGTTAAA | 0.403 E-score |
| CACTAACC | 0.17 E-score |
| ACCGAAAT | -0.074 E-score |
| CTGCGCAA | -0.0439 E-score |
| ATTGATGG | -0.0681 E-score |
| AGATGTAT | -0.016 E-score |
| ACTCGTGC | 0.0141 E-score |
| GTGAGCTA | -0.0748 E-score |
| GCCACGGA | -0.0298 E-score |
| CTTGATAA | -0.128 E-score |
| AGGGAAAG | -0.0944 E-score |
| AGTCCCCA | -0.147 E-score |
| CGCCGCCG | 0.208 E-score |
| CCGCTCCA | 0.0989 E-score |
| CCAACAAG | 0.0219 E-score |
| AACAATAA | -0.0417 E-score |
| CGGTTATA | -0.139 E-score |
| TATTCGAA | -0.277 E-score |
| AGCGGTGA | -0.128 E-score |
| GGCGGGAC | -0.0272 E-score |
| CAAGTGAA | -0.275 E-score |
| AGGGCTAA | -0.15 E-score |

| Sequence | binding signal |
| --- | --- |
| AAGCGGAT | 0.0333 E-score |
| AACGCATC | -0.108 E-score |
| ACTTTGAA | -0.332 E-score |
| CTCGTGCA | 0.102 E-score |
| TGTGCAAA | -0.0139 E-score |
| GCGCGCAA | -0.0272 E-score |
| TAATAGCA | -0.0838 E-score |
| ACTTCTTG | 0.148 E-score |
| ATGCGTAA | -0.0507 E-score |
| ATTGAGCA | 0.0892 E-score |
| GGACTTAA | -0.161 E-score |
| GATCGCAC | 0.0949 E-score |
| CACGGTTA | 0.119 E-score |
| CTCATCTC | -0.166 E-score |
| AAGACGTA | -0.203 E-score |
| GATAGATC | -0.276 E-score |
| GATATGAC | -0.0649 E-score |
| CGTCTAGA | -0.11 E-score |
| CGTCATCC | -0.0594 E-score |
| AATTGTAG | -0.265 E-score |
| CATGTTCG | -0.161 E-score |
| AGCTCCAG | -0.238 E-score |
| TATGTGGA | -0.0367 E-score |
| CAGCTTGC | -0.294 E-score |
| CCGATCCC | 0.221 E-score |

| Sequence | binding signal |
| --- | --- |
| GCCACCAC | -0.0598 E-score |
| CAGTGACA | 0.136 E-score |
| CAGATCGG | 0.131 E-score |
| GGGCCGTA | -0.0739 E-score |
| AGAGTTGC | 0.135 E-score |
| AATATAGG | -0.0683 E-score |
| CCGCGAGG | 0.0528 E-score |
| ACTTGAAC | -0.0046 E-score |
| ATTCTCGA | 0.0111 E-score |
| CCCAAAAC | 0.193 E-score |
| GGGCATCA | -0.0627 E-score |
| CACAAGGG | 0.0821 E-score |
| CATATTCA | 0.0316 E-score |
| CTTAACTA | 0.0826 E-score |
| CCGATGCG | 0.0743 E-score |
| AAGGGTTG | -0.0595 E-score |
| ATGGTAAG | -0.048 E-score |
| CGCTAACA | 0.187 E-score |
| AAGACCTC | -0.143 E-score |
